{
  "source": "patent US11478470B2",
  "about": "“Combination product of Bcl-2 inhibitor or Bcl-2/Bcl-xL dual inhibitor and BTK inhibitor and use thereof in the prevention and/or treatment of diseases” (ASCENTAGE PHARMA (SUZHOU) CO., LTD., priority 2018, dated 2022)",
  "test_in_all_cases": "cells",
  "key": {"[1]": {"tested_on": "RPMI-8226 (multiple myeloma (MM))", "details": "Homo sapiens, RPMI-8226, 72 h, read-out: IC50 of Ibrutinib alone for inhibition of proliferation"}, "[2]": {"tested_on": "Z-138 (mantle cell lymphoma (MCL))", "details": "Homo sapiens, Z-138, 72 h, read-out: IC50 of Ibrutinib for inhibition of proliferation"}, "[3]": {"tested_on": "DOHH2 (follicular lymphoma (FL))", "details": "Homo sapiens, DOHH-2, 72 h, read-out: IC50 of Ibrutinib alone for inhibition of proliferation"}, "[4]": {"tested_on": "KMS-11 (multiple myeloma (MM))", "details": "Homo sapiens, KMS-11, 72 h, read-out: IC50 of Ibrutinib alone for inhibition of proliferation"}},
  "data": [
    {"smiles": "C=CC(=O)N1CCC[C@@H](n2nc(-c3ccc(Oc4ccccc4)cc3)c3c(N)ncnc32)C1", "note": "[Ibrutinib, reference compound]", "values": [
      {"measurement": "IC50", "setting": "[1]", "result": 18.7, "unit": "µM"},
      {"measurement": "IC50", "setting": "[2]", "result": 10.6, "unit": "µM"},
      {"measurement": "IC50", "setting": "[3]", "result": 0.021, "unit": "µM"},
      {"measurement": "IC50", "setting": "[4]", "result": 14.8, "unit": "µM"}
    ]}
  ]
}
